# Experimental data as given in the supplement of paper PMC8728848.
# The list shows a part of the results.
# B1: TIM1 (protein)
# chain: ADGIQSVKVGGEAGPSVTLPCHYSGAVTSMCWNRGSCSLFTCQNGIVWTNGTHVTYRKDTRYKLLGDLSRRDVSLTIENTAVSDSGVYCCRVEHRGWFNDMKITVSLEIVPPHHHHHH
# Tests used:
# Experiment in all cases: glycan array binding signal (z-score within array); higher = stronger binding
# Details in all cases: glycan notation: IUPAC condensed, linker removed
# [1] = molecular target: Neu5Ac(a2-6)Gal(b1-4)GlcNAc(b1-2)Man(a1-6)[Man(a1-3)]Man(b1-4)GlcNAc(b1-4)GlcNAc
# Outline: (§1)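 The binding signal is a Z-score computed within each array and averaged over linkers. Arrays of the same protein sequence at different concentrations or buffers were also averaged together. Data originate from 3228 arrays in the Consortium for Functional Glycomics database, kept only where the protein sequence was available.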
# [2] = molecular target: Neu5Ac(a2-6)Gal(b1-4)GlcNAc(b1-2)[Neu5Ac(a2-6)Gal(b1-4)GlcNAc(b1-4)]Man(a1-3)[GlcNAc(b1-4)][Neu5Ac(a2-6)Gal(b1-4)GlcNAc(b1-2)[Neu5Ac(a2-6)Gal(b1-4)GlcNAc(b1-6)]Man(a1-6)]Man(b1-4)GlcNAc(b1-4)GlcNAc
# Outline: as §1
# [3] = molecular target: Neu5Ac(a2-6)Gal(b1-4)GlcNAc(b1-2)[Neu5Ac(a2-6)Gal(b1-4)GlcNAc(b1-4)]Man(a1-3)[GlcNAc(b1-4)][Neu5Ac(a2-6)Gal(b1-4)GlcNAc(b1-4)Man(a1-6)]Man(b1-4)GlcNAc(b1-4)GlcNAc
# Outline: as §1
# [4] = molecular target: Neu5Ac(a2-6)Gal(b1-4)GlcNAc(b1-2)[Neu5Ac(a2-6)Gal(b1-4)GlcNAc(b1-6)]Man(a1-6)[Neu5Ac(a2-6)Gal(b1-4)GlcNAc(b1-2)Man(a1-3)][GlcNAc(b1-4)]Man(b1-4)GlcNAc(b1-4)GlcNAc
# Outline: as §1
# [5] = molecular target: Neu5Ac(a2-6)Gal(b1-4)GlcNAc(b1-3)Gal(b1-3)GlcNAc
# Outline: as §1
# [6] = molecular target: Neu5Ac(a2-6)Gal(b1-4)GlcNAc(b1-3)Gal(b1-4)GlcNAc
# Outline: as §1
# [7] = molecular target: Neu5Ac(a2-6)Gal(b1-4)GlcNAc(b1-3)Gal(b1-4)GlcNAc(b1-2)Man(a1-3)[Neu5Ac(a2-6)Gal(b1-4)GlcNAc(b1-3)Gal(b1-4)GlcNAc(b1-2)Man(a1-6)]GalNAc
# Outline: as §1
# [8] = molecular target: Neu5Ac(a2-6)Gal(b1-4)GlcNAc(b1-3)Gal(b1-4)GlcNAc(b1-3)Gal(b1-4)GlcNAc
# Outline: as §1
# [9] = molecular target: Neu5Ac(a2-6)Gal(b1-4)GlcNAc(b1-3)Gal(b1-4)GlcNAc(b1-3)Gal(b1-4)GlcNAc(b1-2)Man(a1-3)[Neu5Ac(a2-6)Gal(b1-4)GlcNAc(b1-3)Gal(b1-4)GlcNAc(b1-3)Gal(b1-4)GlcNAc(b1-2)Man(a1-6)]GalNAc
# Outline: as §1
# [10] = molecular target: Neu5Ac(a2-6)Gal(b1-4)GlcNAc(b1-3)Gal(b1-4)GlcNAc(b1-3)GalNAc
# Outline: as §1
# [11] = molecular target: Neu5Ac(a2-6)Gal(b1-4)GlcNAc(b1-3)Gal(b1-4)GlcNAc(b1-3)[Neu5Ac(a2-6)Gal(b1-4)GlcNAc(b1-3)Gal(b1-4)GlcNAc(b1-6)]GalNAc
# Outline: as §1
# [12] = molecular target: Neu5Ac(a2-6)Gal(b1-4)GlcNAc(b1-3)Gal(b1-4)GlcNAc(b1-6)[Gal(b1-3)]GalNAc
# Outline: as §1
# [13] = molecular target: Neu5Ac(a2-6)Gal(b1-4)GlcNAc(b1-3)Gal(b1-4)[Fuc(a1-3)]GlcNAc(b1-3)Gal(b1-4)[Fuc(a1-3)]GlcNAc
# Outline: as §1
# [14] = molecular target: Neu5Ac(a2-6)Gal(b1-4)GlcNAc(b1-3)GalNAc
# Outline: as §1
# [15] = molecular target: Neu5Ac(a2-6)Gal(b1-4)GlcNAc(b1-3)[Neu5Ac(a2-6)Gal(b1-4)GlcNAc(b1-6)]GalNAc
# Outline: as §1
# [16] = molecular target: Neu5Ac(a2-6)Gal(b1-4)GlcNAc(b1-6)GalNAc
# Outline: as §1
# [17] = molecular target: Neu5Ac(a2-6)Gal(b1-4)GlcNAc(b1-6)[Gal(b1-3)GlcNAc(b1-3)]Gal(b1-4)Glc
# Outline: as §1
# [18] = molecular target: Neu5Ac(a2-6)Gal(b1-4)GlcNAc(b1-6)[Gal(b1-3)]GalNAc
# Outline: as §1
# [19] = molecular target: Neu5Ac(a2-6)Gal(b1-4)GlcNAc6S
# Outline: as §1
# Neu5Ac(a2-6)GalNAc = molecular target: Neu5Ac(a2-6)GalNAc
# Outline: as §1
# [20] = molecular target: Neu5Ac(a2-6)GalNAc(b1-4)GlcNAc
# Outline: as §1
# [21] = molecular target: Neu5Ac(a2-6)GalNAc(b1-4)GlcNAc6S
# Outline: as §1
# [22] = molecular target: Neu5Ac(a2-6)GlcNAc(b1-4)GlcNAc
# Outline: as §1
binder,measurement,setting,value
B1,glycan array binding signal (z-score),[1],-0.179
same,glycan array binding signal (z-score),[2],-0.245
same,glycan array binding signal (z-score),[3],-0.238
same,glycan array binding signal (z-score),[4],-0.275
same,glycan array binding signal (z-score),[5],-0.224
same,glycan array binding signal (z-score),[6],-0.184
same,glycan array binding signal (z-score),[7],1.3
same,glycan array binding signal (z-score),[8],-0.266
same,glycan array binding signal (z-score),[9],5.74
same,glycan array binding signal (z-score),[10],-0.194
same,glycan array binding signal (z-score),[11],0.734
same,glycan array binding signal (z-score),[12],0.088
same,glycan array binding signal (z-score),[13],-0.236
same,glycan array binding signal (z-score),[14],-0.109
same,glycan array binding signal (z-score),[15],-0.168
same,glycan array binding signal (z-score),[16],-0.152
same,glycan array binding signal (z-score),[17],-0.137
same,glycan array binding signal (z-score),[18],-0.075
same,glycan array binding signal (z-score),[19],-0.209
same,glycan array binding signal (z-score),Neu5Ac(a2-6)GalNAc,-0.199
same,glycan array binding signal (z-score),[20],-0.239
same,glycan array binding signal (z-score),[21],-0.183
same,glycan array binding signal (z-score),[22],-0.28
